From PMC4336329 (PLoS ONE, 2015)
Hit rate of the full screen: of about 310,000 compounds, about 14,000 (4.5%) showed an effect of 50% or more. Effects have a minus sign here. This is one part of the list.

Each compound was assayed against human ether-à-go-go-related gene (hERG) potassium channel (human, UniProt Q12809) (assay: primary screen, population patch clamp on CHO cells stably expressing hERG).
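Further: peak tail current of the secondary pulse compared with the same well before compound.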

human ether-à-go-go-related gene (hERG) potassium channel, sequence (Q12809 whole entry, looked up): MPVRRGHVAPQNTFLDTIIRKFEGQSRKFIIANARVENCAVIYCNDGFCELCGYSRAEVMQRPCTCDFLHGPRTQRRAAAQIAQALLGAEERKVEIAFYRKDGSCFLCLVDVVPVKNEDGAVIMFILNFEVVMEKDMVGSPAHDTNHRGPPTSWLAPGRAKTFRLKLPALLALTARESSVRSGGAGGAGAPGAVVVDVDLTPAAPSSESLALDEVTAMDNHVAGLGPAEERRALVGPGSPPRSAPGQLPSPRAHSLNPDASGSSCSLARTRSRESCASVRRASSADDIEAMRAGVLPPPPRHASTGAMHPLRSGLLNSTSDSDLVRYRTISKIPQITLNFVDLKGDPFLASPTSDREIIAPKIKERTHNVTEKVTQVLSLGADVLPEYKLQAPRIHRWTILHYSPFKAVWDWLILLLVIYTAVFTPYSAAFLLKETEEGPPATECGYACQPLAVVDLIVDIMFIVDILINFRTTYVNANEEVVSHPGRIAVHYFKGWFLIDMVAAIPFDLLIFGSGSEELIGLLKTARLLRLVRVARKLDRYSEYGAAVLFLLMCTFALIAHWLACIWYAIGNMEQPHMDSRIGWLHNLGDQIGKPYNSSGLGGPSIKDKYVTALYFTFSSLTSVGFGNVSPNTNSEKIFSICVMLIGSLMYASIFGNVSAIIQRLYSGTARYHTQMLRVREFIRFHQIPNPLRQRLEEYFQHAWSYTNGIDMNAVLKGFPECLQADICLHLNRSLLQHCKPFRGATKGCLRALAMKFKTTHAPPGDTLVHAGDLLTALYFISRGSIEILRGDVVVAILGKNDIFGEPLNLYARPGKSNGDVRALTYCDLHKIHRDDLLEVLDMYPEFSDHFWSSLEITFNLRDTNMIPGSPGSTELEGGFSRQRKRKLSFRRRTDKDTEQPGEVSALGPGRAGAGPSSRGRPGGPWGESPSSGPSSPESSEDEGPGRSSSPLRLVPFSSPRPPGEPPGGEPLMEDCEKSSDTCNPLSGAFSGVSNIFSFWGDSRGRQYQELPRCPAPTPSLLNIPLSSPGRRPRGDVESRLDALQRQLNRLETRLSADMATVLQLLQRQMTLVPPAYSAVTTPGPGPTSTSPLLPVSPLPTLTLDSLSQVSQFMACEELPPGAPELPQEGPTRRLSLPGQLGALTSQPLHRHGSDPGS

Compound | hERG current change (%, negative = inhibition) at 10uM [%]
C/C(=N\NC(=O)COc1c(C)cccc1C)c1cccs1 | 7.96
Cc1nnc(SCC(=O)Nc2ccc(Cl)cn2)n1Cc1ccccc1 | -16.7
COC(=O)N1CCN(c2ccc(C)cc2)C(C)C1 (centres unmarked) | 17
COc1ccc(C(=O)CC(=O)C(=O)Nc2ccc([N+](=O)[O-])cc2C)cc1 | 15.2
NNC(=O)c1ccc(Cn2cc(Cl)cn2)cc1 | -8.03
CCN(Cc1ccccc1)S(=O)(=O)c1ccc(C(=O)N(CCCN(C)C)c2nc3cc4c(cc3s2)OCO4)cc1.Cl | -45.2
Cc1ccc(S(=O)(=O)NCCCNS(C)(=O)=O)cc1 | -1.26
O=C(NC12CC3CC(CC(C3)C1)C2)C1CCCN1C(=O)Nc1ccccc1 (centres unmarked) | 9.13
CC12CCC(C(=O)NCCCN3CCOCC3)(C(Br)C1=O)C2(C)C (centres unmarked) | 8.83
CCCCOc1ccc(CSCCN)cc1Cl.Cl | -4.84
Cc1cc2ncn(C(=O)c3c(-c4ccccc4Cl)noc3C)c2cc1C | 10.1
CC(=O)c1sc(C(C)(C)C)cc1NC(=O)c1ccccc1C(=O)O | 17.1
COc1cc2c3c(c1)-c1c(sn(-c4cc(OC)ccc4OC)c1=S)C(C)(C)N3C(=O)C2=O | 8.61
Cc1ccccc1-n1c(O)c(/C=N/c2nccs2)c(=O)[nH]c1=O [24811058] | 16.9
Cc1cc(SCC(=O)c2cccs2)n2nc(C)c(-c3ccc(Cl)cc3)c2n1 | 5.12
CCCCCCc1ccc(-c2ncc(N)cn2)cc1 | -0.301
C=CCNc1nnc(Cc2ccc(C(C)C)cc2)c(=O)[nH]1 | -0.924
Cc1cnc(C(=O)Nc2ccccc2-c2ccc(C)o2)cn1 | 5.64
CCC(C)NC(=O)C1CCN(CCCc2ccccc2)CC1.O=C(O)C(=O)O (centres unmarked) | -1.26
COc1ccc(Cc2noc(CN(C)Cc3ccc(-n4cccn4)cc3)n2)cc1OC | -47.2
COc1ncc(C2=CC(=O)CC(C)(C)C2)cn1 | 2.5
C[N+]1(C)CC[C@H](OC(=O)[C@@](O)(c2ccccc2)C2CCCC2)C1.[Br-] | -4.08
CCCc1c(C(=O)Nc2ccc(C(F)(F)F)cc2)cnn1-c1ccccc1 | 15.4

Compound | hERG current change (%, negative = inhibition) at 10uM [%]
S=C(NC1CCCCC1)N1CCc2ccccc2C1 | -5.33
O=C(NCc1cccs1)C1CCC(CNS(=O)(=O)c2cccs2)CC1 (centres unmarked) | -2.36
CN(Cc1ccccc1)S(=O)(=O)c1nnc(NC(=O)c2ccccc2F)s1 | 1.89
CCc1ccc(NC(=O)CN(c2ccc3c(c2)OCO3)S(=O)(=O)c2c(C)noc2C)cc1 | 8.49
Cc1ccc(S(=O)(=O)N2CCN(Cc3ccccc3)CC2)c(C)c1N(C)S(=O)(=O)c1ccccc1 | 5.81
Cc1cc(=O)oc2c(C)c(OC(C)C(=O)NCc3ccccn3)ccc12 (centres unmarked) | -6.72
CS(=O)(=O)N1CCC(C(=O)Nc2cccc(Cl)c2)CC1 | 2.18
CC1CCCCC1Nc1ncnc2sccc12 (centres unmarked) | -10.8
COc1cccc(-c2nnc(-c3ccco3)o2)c1 | -9.51
CCn1cc(C(=O)NC2CCC(C)CC2)c(=O)c2cc(S(=O)(=O)N3CCCCC3)ccc21 (centres unmarked) | -22.5
c1ccc2nc(-c3nccs3)ccc2c1 | 2.23
CC1CCCCC1NC(=O)COC(=O)Cc1ccc(Cl)cc1 (centres unmarked) | 15.2
Cc1ccc(-n2nc3c(=O)n(CCCC(=O)N4CCC(C(N)=O)CC4)nc(C)c3c2C)cc1 | 13.1
Cc1ccc(C(=O)NC2CC3CCCC(C2)N3Cc2ccccc2)cc1 (centres unmarked) | -40.4
COc1ccccc1NC(=S)NCCc1ccccc1 | -17.3
Cc1nc(NCC2CCCO2)c2nnn(Cc3c(F)cccc3Cl)c2n1 (centres unmarked) | 13.3
CSc1ccc(CCNS(=O)(=O)c2ccc3c(c2)C(C)(C)C(=O)N3C)cc1 | -19.1
CCC(C)NC(=O)Cn1cnc2sc(C)c(S(=O)(=O)N3CCN(c4ccccc4OC)CC3)c2c1=O (centres unmarked) | 21.8
CC(C)NS(=O)(=O)c1ccc(NC(=O)c2cccnc2)cc1 | 8.45
O=C(COC(=O)c1ccc2c(c1)OCO2)Nc1ccccc1Cl | 8.17
O=c1nc2sc3ccccc3n2c(=O)n1-c1cccc(Cl)c1 | 1.38
C/C(=N/NC(=O)C(C)n1nc(C)c([N+](=O)[O-])c1C)c1ccc(OCC(N)=O)cc1 (centres unmarked) | 9.03
Cc1ccccc1-n1c(C)cc(/C=C2/C(=O)NC(=O)N(Cc3ccco3)C2=O)c1C | 5.64

Compound | hERG current change (%, negative = inhibition) at 10uM [%]
CC(=O)Nc1ccc(N2CCCCC2)cc1 | 7.26
CC(=O)c1cccc(NC(=O)Nc2nc(C)cc(C)n2)c1 | 17
CN(C)C(CNc1ccc(S(C)(=O)=O)cc1[N+](=O)[O-])Cc1ccccc1 (centres unmarked) | -38.9
CCC(C)C(NC(=O)c1ccccc1NC(=O)c1ccco1)C(=O)NNC(=O)c1ccncc1 (centres unmarked) | -13.8
Cc1ccc(S(=O)(=O)c2cc(N3CCOCC3)nc(-c3ccccc3)n2)cc1 | 3.87
CCN(CC)c1ccc(/C=N/O)cc1 | 18.3
CNS(=O)(=O)c1cccc(C(=O)OCC(=O)c2cc(C)n(CC3CCCO3)c2C)c1 (centres unmarked) | -38.6
CCc1cc(=O)oc2c(C)c(OCC(=O)NCCCN3CCOCC3)ccc12 | -31.8
Cc1ccc2c(c1)N(CC(=O)NCCCN1C(C)CCCC1C)C(=O)c1cccnc1O2 (centres unmarked) | -3.31
Cc1cc(C)nc(NC2=NCC(=O)N2c2ccc3c(c2)OCCO3)n1 | 3.75
C(#CCN1CCOCC1)COCc1ccccc1.Cl | 11.1
Cl.OC(COCc1ccccc1)CN1CCN(c2ccccc2F)CC1 (centres unmarked) | -45.9
CCOC(=O)c1cc(C)[nH]c(=S)c1C#N | -23.4
Oc1ccc(Nc2nc(-c3ccc4ccccc4c3)cs2)cc1 | 1.13
NC(=O)NC1CCCc2c1[nH]c1ccc(Cl)cc21 (centres unmarked) | 5.54
CN(CCC#N)CC(=O)Nc1ccc(S(N)(=O)=O)cc1 | 13.3
CC1=NN(Cc2ccccc2)C(=O)C1C(c1ccccc1)C(C#N)C#N (centres unmarked) | 8.71
Cn1c(CNC(=O)c2ccco2)nnc1SCC(=O)Nc1ccccc1Cl | -2.04
CCc1cccc(C)c1N(C(=O)Cn1c(COC)nc2ccccc21)C(C)COC (centres unmarked) | -3.41
COc1ccc(CCNC(=O)c2cccc(S(=O)(=O)NC(C)c3ccccc3)c2)cc1 (centres unmarked) | 6.04
CCn1c2c(c3cc(Br)ccc31)CCC/C2=N\O | 5.26
Clc1ccc2c(N/N=C/c3ccc(Br)cc3)ccnc2c1 | 18.7
CCc1ccc(S(=O)(=O)Nc2cccc(-c3ccc4nncn4n3)c2)s1 | 7.63

Compound | hERG current change (%, negative = inhibition) at 10uM [%]
COc1cc(S(=O)(=O)NCCCn2ccnc2)ccc1F | 9.47
CCCCc1nnc(NC(=O)C2CC(=O)N(c3ccc4c(c3)OCCO4)C2)s1 (centres unmarked) | 11
C=C(C)CSc1nnc([C@@H](N)Cc2c[nH]c3ccccc23)o1.Cl | 8.43
Cc1ccccc1N1CC(C(=O)N2CCCCCC2)CC1=O (centres unmarked) | 4.33
CC1=CC(c2ccccc2)n2ncnc2N1 (centres unmarked) | -0.295
CC(=O)Oc1ccc2nc(/C=C/c3ccccc3)oc(=O)c2c1 | 19.5
CCN1CCN(c2ccc(NC(=O)c3ccc(OC)c(S(=O)(=O)N4CCCC4)c3)cc2)CC1 | -6.16
CCCCN(CCCC)CCNC(=O)CN1C(=O)CSc2ccc(S(=O)(=O)N3CCOCC3)cc21 | -38.8
COc1ccc(Cl)cc1C(=O)CSc1nnnn1C1CCCC1 | -6.05
O=C(NCc1ccc2c(c1)OCO2)c1ccc2snnc2c1 | -15.6
COc1ccc(N2C(=O)CC(Nc3ccc(F)cc3)C2=O)c([N+](=O)[O-])c1 (centres unmarked) | -33
Cc1c(-c2cc(Br)ccc2O)nc2cc3c(cc2c1C)OCO3.Cl | 13.2
CC(C)(C)NS(=O)(=O)c1ccc(N2C(=O)c3ccccc3C2=O)cc1 | 2.77
COCCNC(=O)CCCn1c(=O)c2cc(OC)c(OC)cc2n(CC(=O)Nc2ccc(F)cc2)c1=O | 4.07
CSc1ccccc1NC(=O)C1CC(c2c(F)cccc2Cl)=NO1 (centres unmarked) | 13.8
O=C(CNC(=O)c1cc(=O)[nH]c2ccccc12)Nc1ccc(F)c(F)c1 | 15.1
C=CCn1c(SCC(=O)NCc2ccco2)nc2sc3c(c2c1=O)CCC3 | -13.2
CCC1CCCCN1C(=O)COC(=O)c1cc2ccccc2cc1O (centres unmarked) | 4.98
Cc1oc2ccc(NS(=O)(=O)c3ccccc3)cc2c1C(=O)Nc1ccccc1 | 22.5
COc1cc(C(=O)N[C@H](C(=O)NC2CCCCCC2)C(C)C)cc(OC)c1OC | -12
